# Source: the supplement of paper PMC10037445
# ± gives the standard deviation of the averaged measurements. Whole data set: some 2,900 compounds, median “IRF Lucia reporter activity, fold change vs agonist alone” near 0.9, cut for the highest 2% near 2.8. The list shows a part of the results.
# Legend:
# RAW-Dual [1] = assay: IRF Lucia reporter activity, fold change vs agonist alone; higher = enhanced IRF activity; details: agonist: MPLA (TLR4) […]
# How it was run: (§1)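 Cytotoxic wells were those whose IncuCyte confluency was below 70% of agonist controls in both mask sets. The cells were RAW-Dual macrophages at 50,000 cells/well in DMEM on 384-well plates, dosed with 50 nL of library stock by pin tool, stimulated with a PRR agonist 1 h later, and kept at 37 °C, 5% CO2 for 20 hours. IRF and NF-κB reporter activity, as fold change over agonist-alone wells, came from supernatant read by QuantiLuc luminescence and QuantiBlue absorbance, respectively.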
# RAW-Dual [2] = assay: IRF Lucia reporter activity, fold change vs agonist alone; cytotoxicity flag (confluency mask): not cytotoxic; higher = enhanced IRF activity
# How it was run: as §1
# RAW-Dual [3] = assay: IRF Lucia reporter activity, fold change vs agonist alone; cytotoxicity flag (confluency mask): cytotoxic (confluency <70% of control); higher = enhanced IRF activity
# How it was run: as §1
# [4] = library stock concentration (final ~1000-fold dilution): 10 mM, cytotoxicity flag (confluency mask): not cytotoxic
# [5] = agonist: 3'3'-cGAMP (STING) 10 ug/mL
smiles,measurement,setting,value
C#CCNC1CCc2ccccc21 (stereo not given),IRF Lucia reporter activity,RAW-Dual [1]; [4],1.04
C#CCNC1CCc2ccccc21 (stereo not given) (library stock concentration (final ~1000-fold dilution): 10 mM),IRF Lucia reporter activity,RAW-Dual [2]; [5],1.09
same,IRF Lucia reporter activity,RAW-Dual [2]; agonist: LPS (TLR4) 0.1 ug/mL,1.04
CNC(C)C(=O)NC1CN(C(=O)CC(C)C)CCC2CCC(C(=O)NC(c3ccccc3)c3ccccc3)N2C1=O (stereo not given),IRF Lucia reporter activity,RAW-Dual [1]; [4],0.522
CNC(C)C(=O)NC1CN(C(=O)CC(C)C)CCC2CCC(C(=O)NC(c3ccccc3)c3ccccc3)N2C1=O (stereo not given) (library stock concentration (final ~1000-fold dilution): 10 mM),IRF Lucia reporter activity,RAW-Dual [2]; [5],0.81
same,IRF Lucia reporter activity,RAW-Dual [2]; agonist: LPS (TLR4) 0.1 ug/mL,0.595
CC1CC(=O)Nc2cccc(-c3ccc4c(c3)c(-c3cnn(C)c3)nn4C)c2N1 (stereo not given) (library stock concentration (final ~1000-fold dilution): 10 mM),IRF Lucia reporter activity,RAW-Dual [2]; [5],0.64
same,IRF Lucia reporter activity,RAW-Dual [2]; agonist: LPS (TLR4) 0.1 ug/mL,0.169
Clc1ccc(N/N=C(\c2ccccc2)c2ccccn2)nc1,IRF Lucia reporter activity,RAW-Dual [1]; [4],0.334
Clc1ccc(N/N=C(\c2ccccc2)c2ccccn2)nc1 (library stock concentration (final ~1000-fold dilution): 10 mM),IRF Lucia reporter activity,RAW-Dual [2]; [5],1.83
same,IRF Lucia reporter activity,RAW-Dual [2]; agonist: LPS (TLR4) 0.1 ug/mL,0.818
CCC1(O)CC2CN(CCc3c([nH]c4ccccc34)C(C(=O)OC)(c3cc4c(cc3OC)N(C=O)C3C(O)(C(=O)OC)C(OC(C)=O)C5(CC)C=CCN6CCC43C65)C2)C1.O=S(=O)(O)O (stereo not given) (library stock concentration (final ~1000-fold dilution): 10 mM),IRF Lucia reporter activity,RAW-Dual [2]; [5],0.107
same,IRF Lucia reporter activity,RAW-Dual [2]; agonist: LPS (TLR4) 0.1 ug/mL,2.02
CCC1(O)CC2CN(CCc3c([nH]c4ccccc34)C(C(=O)OC)(c3cc4c(cc3OC)N(C=O)C3C(O)(C(=O)OC)C(OC(C)=O)C5(CC)C=CCN6CCC43C65)C2)C1.O=S(=O)(O)O (stereo not given),IRF Lucia reporter activity,RAW-Dual [1]; [4],1.06
Cc1ccc(C(=O)C(C)CN2CCCCC2)cc1.Cl (stereo not given),IRF Lucia reporter activity,RAW-Dual [1]; [4],1.16
Cc1ccc(C(=O)C(C)CN2CCCCC2)cc1.Cl (stereo not given) (library stock concentration (final ~1000-fold dilution): 10 mM),IRF Lucia reporter activity,RAW-Dual [2]; [5],1.07
same,IRF Lucia reporter activity,RAW-Dual [2]; agonist: LPS (TLR4) 0.1 ug/mL,1.18
CC(C)(C)c1nc(-c2cccc(NS(=O)(=O)c3c(F)cccc3F)c2F)c(-c2ccnc(N)n2)s1.CS(=O)(=O)O,IRF Lucia reporter activity,RAW-Dual [1]; [4],0.372
CC(C)(C)c1nc(-c2cccc(NS(=O)(=O)c3c(F)cccc3F)c2F)c(-c2ccnc(N)n2)s1.CS(=O)(=O)O (library stock concentration (final ~1000-fold dilution): 10 mM),IRF Lucia reporter activity,RAW-Dual [2]; [5],0.698
same,IRF Lucia reporter activity,RAW-Dual [2]; agonist: LPS (TLR4) 0.1 ug/mL,0.755
O=C(c1ccc(F)cc1)C1CCN(CCn2c(=O)[nH]c3ccccc3c2=O)CC1,IRF Lucia reporter activity,"RAW-Dual [1]; library stock concentration (final ~1000-fold dilution): 2 mM, cytotoxicity flag (confluency mask): not cytotoxic",1.4
O=C(c1ccc(F)cc1)C1CCN(CCn2c(=O)[nH]c3ccccc3c2=O)CC1 (library stock concentration (final ~1000-fold dilution): 2 mM),IRF Lucia reporter activity,RAW-Dual [2]; [5],0.999
same,IRF Lucia reporter activity,RAW-Dual [2]; agonist: LPS (TLR4) 0.1 ug/mL,0.972
Cc1csc(-c2nnc(Nc3ccc(Oc4ncccc4-c4ccnc(N)n4)cc3)c3ccccc23)c1 (library stock concentration (final ~1000-fold dilution): 10 mM),IRF Lucia reporter activity,RAW-Dual [3]; [5],0.123
same,IRF Lucia reporter activity,RAW-Dual [3]; agonist: LPS (TLR4) 0.1 ug/mL,0.391
Cc1csc(-c2nnc(Nc3ccc(Oc4ncccc4-c4ccnc(N)n4)cc3)c3ccccc23)c1,IRF Lucia reporter activity,"RAW-Dual [1]; library stock concentration (final ~1000-fold dilution): 10 mM, cytotoxicity flag (confluency mask): cytotoxic (confluency <70% of control)",0.598
CC(C)c1cccc(O)c(=O)c1 (library stock concentration (final ~1000-fold dilution): 10 mM),IRF Lucia reporter activity,RAW-Dual [2]; [5],0.82
same,IRF Lucia reporter activity,RAW-Dual [2]; agonist: LPS (TLR4) 0.1 ug/mL,1.35
CC(O)CO.CCOc1ccc(Cc2cc(C3OC(CO)C(O)C(O)C3O)ccc2Cl)cc1.O (stereo not given),IRF Lucia reporter activity,RAW-Dual [1]; [4],1.05
CC(O)CO.CCOc1ccc(Cc2cc(C3OC(CO)C(O)C(O)C3O)ccc2Cl)cc1.O (stereo not given) (library stock concentration (final ~1000-fold dilution): 10 mM),IRF Lucia reporter activity,RAW-Dual [2]; [5],1.07
same,IRF Lucia reporter activity,RAW-Dual [2]; agonist: LPS (TLR4) 0.1 ug/mL,1.03
C=C1CCC2C(C)(CO)C(O)CCC2(C)C1C/C=C1/C(=O)OCC1O (stereo not given),IRF Lucia reporter activity,RAW-Dual [1]; [4],0.992 ± 0.32
C=C1CCC2C(C)(CO)C(O)CCC2(C)C1C/C=C1/C(=O)OCC1O (stereo not given) (library stock concentration (final ~1000-fold dilution): 10 mM),IRF Lucia reporter activity,RAW-Dual [2]; [5],0.495 ± 0.16
same,IRF Lucia reporter activity,RAW-Dual [2]; agonist: LPS (TLR4) 0.1 ug/mL,0.679 ± 0.14
CC1=C(C)C(=O)C(C(CCCCCC(=O)O)c2ccccc2)=C(C)C1=O (stereo not given),IRF Lucia reporter activity,RAW-Dual [1]; [4],1
CC1=C(C)C(=O)C(C(CCCCCC(=O)O)c2ccccc2)=C(C)C1=O (stereo not given) (library stock concentration (final ~1000-fold dilution): 10 mM),IRF Lucia reporter activity,RAW-Dual [2]; [5],0.983
same,IRF Lucia reporter activity,RAW-Dual [2]; agonist: LPS (TLR4) 0.1 ug/mL,0.953
CC1CCC2(C(=O)OC3OC(COC4OC(CO)C(OC5OC(C)C(O)C(O)C5O)C(O)C4O)C(O)C(O)C3O)CCC3(C)C(=CCC4C5(C)CC(O)C(O)C(C)(CO)C5CCC43C)C2C1C (stereo not given),IRF Lucia reporter activity,RAW-Dual [1]; [4],1.1
CC1CCC2(C(=O)OC3OC(COC4OC(CO)C(OC5OC(C)C(O)C(O)C5O)C(O)C4O)C(O)C(O)C3O)CCC3(C)C(=CCC4C5(C)CC(O)C(O)C(C)(CO)C5CCC43C)C2C1C (stereo not given) (library stock concentration (final ~1000-fold dilution): 10 mM),IRF Lucia reporter activity,RAW-Dual [2]; [5],1.06
same,IRF Lucia reporter activity,RAW-Dual [2]; agonist: LPS (TLR4) 0.1 ug/mL,1.12
